From PMC4336329 (PLoS ONE, 2015)
Out of some 310,000 compounds screened, about 14,000 (4.5%) showed an effect of 50% or more. The effect is printed as a negative number. This is one part of the list.

Biological target: human ether-à-go-go-related gene (hERG) potassium channel (human, UniProt Q12809)
Test: primary screen, population patch clamp on CHO cells stably expressing hERG
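Note: peak tail current of the secondary pulse compared with the same well before compound.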

Chain of human ether-à-go-go-related gene (hERG) potassium channel (Q12809 whole entry, looked up): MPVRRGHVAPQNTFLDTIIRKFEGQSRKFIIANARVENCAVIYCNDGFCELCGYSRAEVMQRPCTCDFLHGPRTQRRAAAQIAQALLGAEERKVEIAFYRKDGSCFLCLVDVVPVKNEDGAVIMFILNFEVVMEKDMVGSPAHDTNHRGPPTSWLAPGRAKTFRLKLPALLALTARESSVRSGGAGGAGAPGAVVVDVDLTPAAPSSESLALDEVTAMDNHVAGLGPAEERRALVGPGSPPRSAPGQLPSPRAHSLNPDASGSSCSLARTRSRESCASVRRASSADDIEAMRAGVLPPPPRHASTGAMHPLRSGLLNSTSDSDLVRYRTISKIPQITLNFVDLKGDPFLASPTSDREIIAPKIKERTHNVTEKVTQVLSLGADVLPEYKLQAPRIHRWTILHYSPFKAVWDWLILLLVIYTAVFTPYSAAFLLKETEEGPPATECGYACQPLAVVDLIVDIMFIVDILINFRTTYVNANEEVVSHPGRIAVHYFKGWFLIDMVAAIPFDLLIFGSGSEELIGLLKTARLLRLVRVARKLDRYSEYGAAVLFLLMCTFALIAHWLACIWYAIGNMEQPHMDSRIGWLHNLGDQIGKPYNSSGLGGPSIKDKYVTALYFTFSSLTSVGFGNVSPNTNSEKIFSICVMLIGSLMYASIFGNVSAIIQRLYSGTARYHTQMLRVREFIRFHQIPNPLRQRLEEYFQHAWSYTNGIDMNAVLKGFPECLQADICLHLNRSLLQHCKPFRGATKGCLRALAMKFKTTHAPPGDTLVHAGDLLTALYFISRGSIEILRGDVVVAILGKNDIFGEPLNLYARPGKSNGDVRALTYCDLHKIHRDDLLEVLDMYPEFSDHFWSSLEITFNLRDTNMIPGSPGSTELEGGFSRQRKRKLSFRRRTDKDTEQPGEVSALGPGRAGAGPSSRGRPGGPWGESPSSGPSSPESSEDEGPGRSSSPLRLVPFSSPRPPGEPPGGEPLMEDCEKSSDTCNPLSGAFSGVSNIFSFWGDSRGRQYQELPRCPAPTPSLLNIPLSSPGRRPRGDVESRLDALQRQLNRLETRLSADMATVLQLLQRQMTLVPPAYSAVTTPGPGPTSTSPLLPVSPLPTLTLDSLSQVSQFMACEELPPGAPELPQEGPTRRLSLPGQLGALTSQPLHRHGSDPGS

Row | Compound | hERG current change (%, negative = inhibition) at 10uM [%]
1 | CCc1cc(C(=O)NN2C(=O)NC3(CCCCC3)C2=O)sc1C | 4.66
2 | CC(C)(C)c1ccc(-c2n[nH]c(=S)n2C2CCCC2)cc1 | 4.01
3 | CC(C)CN(C(=O)CCC(=O)OCC(=O)c1ccc(F)c(F)c1)c1c(N)n(CC(C)C)c(=O)[nH]c1=O | 6.13
4 | N#CCSc1ccccc1NC(=O)COC(=O)Cc1c[nH]c2ccccc12 | 2.6
5 | CCN1CCN(C(C)CCc2ccccc2)CC1 (centres unmarked) | -17.7
6 | CNc1c(N)c(=O)oc2ccccc12 | 10.9
7 | Cn1c(-c2ccc(F)cc2)cnc1SCC(=O)N1CCCCC1 | 8.09
8 | O=C(c1nc2nc(-c3cccs3)cc(C(F)(F)F)n2n1)N1CCN(Cc2ccccc2)CC1 | -48.3
9 | CC(c1nccs1)N(C)C(=O)CCc1nnc(Cc2c[nH]c3ccccc23)o1 (centres unmarked) | 11.2
10 | CCn1nc(C)cc1C(=O)N1CCCC(C(=O)c2ccc(Oc3ccccc3)cc2)C1 (centres unmarked) | -9.04
11 | CC(=O)c1c(C)[nH]c(C(=O)NNC(=O)COc2ccc(Cl)cc2C)c1C | -26
12 | Cc1cc(OCCN2CCOCC2)ccc1C(C)C.Cl | 15.4
13 | CC1=NN(c2ccccc2)C(=O)/C1=C/c1cn(C)c2ccccc12 | 1.05
14 | Nc1nc(N)c(N=Nc2ccc(SCC(=O)O)cc2)c(=O)[nH]1 | 14.2
15 | Cc1cnn(C(=O)c2oc3ccccc3c2C)c1 | 5.74
16 | COc1ccc(C2N=C(c3ccccc3)C(C)(C)N2O)cc1OC (centres unmarked) | -4.44
17 | CCOC(=O)C1=C(CNCc2ccc(C)cc2)NC(=O)NC1c1cc(C)ccc1C (centres unmarked) | -24.9
18 | CCCC(=O)N(c1ccc(OC)cc1)C1C=CS(=O)(=O)C1 (centres unmarked) | -8.09
19 | Cc1[nH]n(-c2ccccc2)c(=O)c1/C=N/NC(=O)c1ccc(O)cc1O | 13.7
20 | COC(=O)c1cc2oc3ccccc3c2n1CC(=O)N1CCCc2ccccc21 | 15.2
21 | NC(=O)c1cc2ccccc2o/c1=N\NC(=O)c1ccccc1O | 7.9
22 | O=c1cc(NCCCO)c2ccccc2o1 | 2.62
23 | CCN(CC)c1ccc(/C=N/NC(=O)c2ccco2)c(O)c1 | -4.31

Row | Compound | hERG current change (%, negative = inhibition) at 10uM [%]
24 | CCC(=O)Oc1ccc(C(=O)Nc2c[nH]c(=O)[nH]c2=O)cc1 | 4.75
25 | COc1ccc(C)cc1NC(=O)Nc1cnccn1 | 3.21
26 | CCn1c2ccccc2c2cc(/C=N/NC(=O)c3cccc(C)c3)ccc21 | 6.36
27 | O=S(=O)(c1cnc[nH]1)N1CCN(c2ccc(F)cc2)CC1 | -3
28 | CCC1CCCCN1Cc1nc2ccccc2c(=O)n1CC(C)=O (centres unmarked) | -9.47
29 | Cc1ccc(CN2CCN(Cc3ccccc3C(F)(F)F)CC2)cc1.O=C(O)C(=O)O | 2.42
30 | Cc1ccccc1-n1cc(-c2ccc(Br)cc2)nc1SCC(N)=O | -11.2
31 | Cc1cccc(OCCC(=O)Nc2c(C)n(C)n(-c3ccccc3)c2=O)c1 | 3.41
32 | C(=N\NCc1ccccc1)/c1ccc2ncccc2c1 | 4.57
33 | CCN=C1SC(CC(=O)NCCc2ccc(OC)c(OC)c2)C(=O)N1CC (centres unmarked) | 7.59
34 | O=C(NCc1ccco1)c1ccc2c(c1)CCO2 | 10.4
35 | COc1ccc(N(CC(=O)N/N=C/c2cccc(OC)c2OC)S(=O)(=O)c2ccccc2)cc1 | -6.77
36 | CC(C)CC(NS(=O)(=O)c1ccccc1S(=O)(=O)NC(CC(C)C)C(=O)O)C(=O)O (centres unmarked) | 11.3
37 | Cn1cnc(S(=O)(=O)N2CCN(C(c3ccccc3)c3ccccc3)CC2)c1 | -2.54
38 | O=C(c1cnn2c(C(F)(F)F)cc(-c3ccccc3)nc12)N1CCC2(CC1)OCCO2 | -6.39
39 | O=C1NC(=O)C(c2ccccc2)(c2ccccc2)N1 | 1.76
40 | O=C(CC1(O)C(=O)N(Cc2ccccc2)c2ccccc21)c1ccc2c(c1)OCO2 (centres unmarked) | 1.08
41 | Cc1ccc(C)c(NC(=O)Cc2nc(CNCC(C)C)cs2)c1 | -1.78
42 | Cc1cc2nc(C(F)(F)F)[nH]c(=O)n2n1 | 16.2
43 | COc1ccc(NC(=O)c2ccccc2SC)cc1 | 14.4
44 | CCOc1ccc(OCCCCn2ccnc2)cc1 | -24.9
45 | C=CCOc1cccc(CNc2cccc(C(=O)O)c2)c1 | 20.7
46 | Cc1onc(-c2ccccc2)c1C(=O)Nc1ccc(Cl)c(S(=O)(=O)N2CCOCC2)c1 | -9.95

Row | Compound | hERG current change (%, negative = inhibition) at 10uM [%]
47 | CSCCC(NS(=O)(=O)c1ccc2c(c1)oc(=O)n2C)C(=O)NC1CCCCC1 (centres unmarked) | 16.1
48 | CC(=O)Nc1ccc(N2CCOCC2)c([N+](=O)[O-])c1 | -3.99
49 | CCCNC(=O)N1[C@H]2CC[C@@H]1C(C(=O)OC)=C(c1cc3ccccc3o1)C2 | -7.09
50 | CCOc1ccc(CNc2ncc(-c3ccccc3)n2C)cc1 | -38.9
51 | COc1ccccc1CNC(=O)c1cccc(-c2ccc(C)c3ccccc23)n1 | 18.9
52 | Cc1cc2c(C)nc3ccccc3c2o1 | -2.63
53 | Cc1cc(C)c(NC(=O)CN2C(=O)NC3(CCCCC3)C2=O)c(Cl)c1 | -4.29
54 | CCOc1ccccc1C1CC(c2ccccc2)Nc2nc(N)nn21.Cl (centres unmarked) | -11.9
55 | CC(C)(C)c1csc(NC(=O)c2ccc(Br)o2)n1 | -20.1
56 | Cc1cc(OCC(=O)NCCCN2CCCC2=O)c2c(C)c(C)c(=O)oc2c1 | -13.6
57 | COc1ccc(-c2nnn(CC(=O)N(CCCN3CCOCC3)C(C(=O)NC3CCCC3)c3ccc(C)o3)n2)cc1 (centres unmarked) | -34.3
58 | O=C(CCl)Nc1cn(-c2ccccc2)nc1-c1ccccc1 | -48.9
59 | N=C1c2ccccc2CN1NC(=O)c1ccc(Br)o1 | 13.8
60 | CCCC1C(C#N)=C(N)Oc2c1c(=O)oc1ccccc21 (centres unmarked) | -6.06
61 | CS(=O)(=O)Nc1cccc(C(=O)OCCCOc2ccc(F)cc2)c1 | -54.5
62 | CCOCC(=O)Nc1nnc(COCC)s1 | 5.56
63 | Cc1ccccc1NC(=O)C1CCCN(S(=O)(=O)c2cccc3cccnc23)C1 (centres unmarked) | -0.726
64 | Brc1ccc(Oc2ncc(CN3CCN(c4ccccc4)CC3)s2)cc1 | 6.41
65 | CCc1cc2c(=O)c(-c3nc4ccccc4n3C)coc2c(CN2CCCC(C)C2)c1O (centres unmarked) | 12.4
66 | CCCN1C/C(=C/c2ccc3c(c2)OCO3)C(=O)/C(=C/c2ccc3c(c2)OCO3)C1 | -17.7
67 | CCCn1c(SCc2ccccc2)nc2c1c(=O)[nH]c(=O)n2C | -12
68 | CCC(=O)N1CCN(c2ccc(NC(=O)c3ccc(C#N)cc3F)cc2Cl)CC1 | -7.73
69 | COc1ccc(-c2nnc(-c3ccc(C)cc3)o2)cc1 | 8.56

Row | Compound | hERG current change (%, negative = inhibition) at 10uM [%]
70 | O=C(O)CCC(=O)Nc1ccc(S(=O)(=O)c2ccc(NC(=O)CCC(=O)O)cc2)cc1 | 13.2
71 | COc1ccc(C(=O)NCc2ccco2)cc1S(=O)(=O)NC1CC1 | -13.8
72 | O=C(c1cc(S(=O)(=O)N2CCOCC2)ccc1Cl)N1CCC(Cc2ccccc2)CC1 | -15.9
73 | O=C(CN1CCN(c2ncc(C(F)(F)F)cc2Cl)CC1)NC(=O)NCc1ccccc1 | 4.2
74 | CCOc1ccc(CNC(=O)Cn2nc(C)n3nc(-c4ccccc4)cc3c2=O)cc1 | -9.48
75 | COc1ccc(C(=O)N=c2sc3c(C)ccc(OC)c3n2C)cc1OC | 7.38
76 | COc1ccc(-c2oc(/N=C/N3CCOCC3)c(C#N)c2-c2ccc(OC)cc2)cc1 | 13.9
77 | CCOC(=O)c1c[nH]n2c(=O)cc(C)nc12 | 11.2
78 | C[C@H](NC(=O)c1nc[nH]c1C(=O)N[C@@H](CCCCNC(=O)OC(C)(C)C)C(=O)OC(C)(C)C)C(=O)OC(C)(C)C | -4.85
79 | Cc1ccc(-c2nnc3c(C(F)(F)F)nc4ccccc4n23)cc1 | -2.14
80 | CCN(CC(=O)NC(C)(C)C)Cc1nc2c(Br)cc(Br)cc2c(=O)[nH]1 | -5.72
81 | O=C(c1ccccc1NS(=O)(=O)c1ccc(F)cc1)N1CCc2ccccc21 | 3.06
82 | N#Cc1ccccc1COC(=O)CCC(=O)c1cccs1 | -4.58
83 | O=C(COC(=O)CN1C(=O)NC2(CCCC2)C1=O)Nc1ccc(C(F)(F)F)cc1[N+](=O)[O-] | -0.173
84 | Cl.OCCNCCNCc1ccc(-c2ccccc2)cc1 | -5.08
85 | CN(C)c1nc(C(=O)OCCO)nc(N(C)C)n1 | -1.98
86 | Cc1cc(Br)c(NC(=O)c2c(-c3c(Cl)cccc3Cl)noc2C)c(Br)c1 | 9.94
87 | CN(C)c1ccc(N2C(=O)CC(Nc3ccc(N4CCOCC4)cc3)C2=O)cc1 (centres unmarked) | -4.02
88 | CCOc1ccc(N(CC(=O)Nc2cccc(C)c2)S(C)(=O)=O)cc1 | -0.0101
89 | COc1cc(CNC(=O)CCCCCCC(C)C)ccc1O | -16.3
